{"sequences": {"note": "Chains of the proteins cited; added tags and fusions are not shown.", "UniProt P23926": "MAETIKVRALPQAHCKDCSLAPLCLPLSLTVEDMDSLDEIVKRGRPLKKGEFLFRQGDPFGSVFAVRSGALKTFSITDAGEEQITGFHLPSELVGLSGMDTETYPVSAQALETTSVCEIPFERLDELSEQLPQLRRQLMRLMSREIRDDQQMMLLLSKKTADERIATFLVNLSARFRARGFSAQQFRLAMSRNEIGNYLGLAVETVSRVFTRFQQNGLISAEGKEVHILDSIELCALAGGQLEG", "UniProt Q9JLF7": "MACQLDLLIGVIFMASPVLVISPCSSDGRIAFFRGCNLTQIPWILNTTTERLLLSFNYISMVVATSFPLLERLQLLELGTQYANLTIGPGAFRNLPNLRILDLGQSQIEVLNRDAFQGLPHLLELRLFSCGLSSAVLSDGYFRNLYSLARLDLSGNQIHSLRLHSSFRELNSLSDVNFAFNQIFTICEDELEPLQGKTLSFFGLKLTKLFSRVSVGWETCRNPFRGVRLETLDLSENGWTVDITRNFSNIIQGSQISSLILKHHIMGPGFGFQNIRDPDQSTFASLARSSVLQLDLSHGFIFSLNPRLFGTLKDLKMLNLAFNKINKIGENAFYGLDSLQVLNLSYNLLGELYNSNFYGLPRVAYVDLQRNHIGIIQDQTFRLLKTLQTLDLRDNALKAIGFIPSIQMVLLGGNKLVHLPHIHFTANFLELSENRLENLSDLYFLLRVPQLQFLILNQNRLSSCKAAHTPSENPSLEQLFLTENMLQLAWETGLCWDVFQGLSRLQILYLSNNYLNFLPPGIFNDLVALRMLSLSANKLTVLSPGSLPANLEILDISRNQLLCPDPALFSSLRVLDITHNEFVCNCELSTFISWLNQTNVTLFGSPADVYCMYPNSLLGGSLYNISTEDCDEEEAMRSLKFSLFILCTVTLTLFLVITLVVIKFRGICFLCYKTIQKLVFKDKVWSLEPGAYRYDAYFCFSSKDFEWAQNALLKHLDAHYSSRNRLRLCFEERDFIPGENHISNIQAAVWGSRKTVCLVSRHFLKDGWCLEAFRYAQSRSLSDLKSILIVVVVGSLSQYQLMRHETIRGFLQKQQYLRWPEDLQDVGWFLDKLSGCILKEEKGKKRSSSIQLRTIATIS", "UniProt Q9QUN7": "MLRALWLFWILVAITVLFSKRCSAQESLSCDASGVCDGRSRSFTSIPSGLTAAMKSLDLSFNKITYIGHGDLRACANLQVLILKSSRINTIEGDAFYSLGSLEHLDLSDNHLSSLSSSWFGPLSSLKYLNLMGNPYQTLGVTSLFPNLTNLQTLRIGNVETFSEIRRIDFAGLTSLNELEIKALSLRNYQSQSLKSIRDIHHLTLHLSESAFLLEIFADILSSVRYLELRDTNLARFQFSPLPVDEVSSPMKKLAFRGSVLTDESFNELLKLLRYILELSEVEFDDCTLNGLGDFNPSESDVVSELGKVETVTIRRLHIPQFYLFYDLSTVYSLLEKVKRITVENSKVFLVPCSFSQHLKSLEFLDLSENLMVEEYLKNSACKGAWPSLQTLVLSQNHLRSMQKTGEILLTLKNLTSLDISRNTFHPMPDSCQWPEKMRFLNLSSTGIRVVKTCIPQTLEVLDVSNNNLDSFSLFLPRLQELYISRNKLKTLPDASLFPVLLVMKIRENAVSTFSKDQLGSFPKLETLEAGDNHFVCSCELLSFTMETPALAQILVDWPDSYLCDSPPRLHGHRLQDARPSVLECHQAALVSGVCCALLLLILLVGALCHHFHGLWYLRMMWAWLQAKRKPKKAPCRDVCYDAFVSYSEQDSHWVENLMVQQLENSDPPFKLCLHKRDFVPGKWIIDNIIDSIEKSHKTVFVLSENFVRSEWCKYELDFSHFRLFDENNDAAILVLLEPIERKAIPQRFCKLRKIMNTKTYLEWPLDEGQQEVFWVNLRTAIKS", "UniProt Q9HXD2": "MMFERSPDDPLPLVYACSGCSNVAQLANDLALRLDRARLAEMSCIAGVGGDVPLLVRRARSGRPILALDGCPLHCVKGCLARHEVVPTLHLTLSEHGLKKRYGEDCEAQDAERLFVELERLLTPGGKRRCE"}, "source": "paper PMC6650552", "test_in_all_cases": "two-hybrid; BacterioMatch II bacterial two-hybrid: pBT bait (λcI fusion) and pTRG-AnvM (RNA polymerase alpha-subunit fusion) cotransformed into the validation reporter strain; growth on nonselective and dually selective media (3-amino-1,2,4-triazole plus streptomycin), 30°C, 2 to 4 days", "key": {"[1]": {"target": "Anr fused to lambda repressor protein (pBT-Anr) (P. aeruginosa) (UniProt P23926)"}, "[2]": {"target": "Toll-like receptor 5 fused to lambda repressor protein (pBT-TLR5) (UniProt Q9JLF7)"}, "[3]": {"target": "NarL (bacterial two-hybrid construct) (P. aeruginosa) (UniProt Q9HXD3)"}, "[4]": {"target": "T1, MvfR fused to lambda repressor protein (pBT-MvfR) (P. aeruginosa) (UniProt Q9I4X0)", "T1 sequence": "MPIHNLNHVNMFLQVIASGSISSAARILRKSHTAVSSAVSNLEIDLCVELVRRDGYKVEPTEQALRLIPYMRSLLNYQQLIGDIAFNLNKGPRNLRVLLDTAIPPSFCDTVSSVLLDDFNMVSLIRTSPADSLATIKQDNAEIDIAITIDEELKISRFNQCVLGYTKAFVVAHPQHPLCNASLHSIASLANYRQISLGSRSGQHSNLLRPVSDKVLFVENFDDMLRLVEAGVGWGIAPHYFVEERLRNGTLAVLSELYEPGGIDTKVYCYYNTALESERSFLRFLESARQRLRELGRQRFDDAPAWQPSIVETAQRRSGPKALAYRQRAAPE"}, "[5]": {"target": "Toll-like receptor 2 fused to lambda repressor protein (pBT-TLR2) (UniProt Q9QUN7)"}}, "note": "These are yes or no findings as the source states them, for the method shown. Some results given as binding are weak or reduced against the parent protein; the word gives no strength. For some assays here: Tags and fused reporters may be left off the sequences shown."}
{"substance": "AnvM fused to the alpha-subunit of RNA polymerase (pTRG-AnvM) (from UniProt Q9HXD2 1-131)", "values": [{"measurement": "binding", "setting": "[1]", "value": "binds"}, {"measurement": "binding", "setting": "[2]", "value": "binds"}, {"measurement": "binding", "setting": "[3]", "value": "no binding"}, {"measurement": "binding", "setting": "[4]", "value": "binds"}, {"measurement": "binding", "setting": "[5]", "value": "binds"}]}
